Assay results from paper PMC12136788.
Some of the results follow.

B1: chr7:66987971:66988072:-|3pUTR|ENSG00000126524|unk|FALSE|unique (ssRNA)
RNA: GGGAGUUCUACAGUCCGACGAUCAAGUUACUUGAGGCAGCUCUUGUGGGUGAAAAGUUAUUUGUACAGUAGAGUAAGAUUAUUAGGGGUAUGUCUAUACAACAAAAGGGGGGGUCUUUCCUAAAAAAGAAAACAUAUGAUGCUCAACAGAGGAUUGAGCAUCA
B2: chr12:71585298:71585408:+|3pUTR|ENSG00000139292|unk|total|mutant (ssRNA)
RNA: GGGAGUUCUACAGUCCGACGAUCUUGUUAACUCACUCAUAUUGAGAUCAUUUUCCGAGAUACCAGGUUUUAUGUAUCAGCACCCGAUGGUUCCACCCUCAUGGGAUAAAACUGCUUACAAGUAUUUUGAAAGAAAAACUGACCCAACAGAGGAUUGAGCAUCA
B3: chr19:811491:811550:+|3pUTR|ENSG00000011304|msi1_unk|total|mutant (ssRNA)
RNA: GGGAGUUCUACAGUCCGACGAUCCCGCAAUAUUUCCAGUUGACCAAAUAUUCUAAUCUUUUUUCAUUUAUAUGCAAAAGAAACCGUUUUAAGUAACUUUUUACCGCAAGAUGAUACAAUGGUAUGAGUGUAAUCUAAACUUCCCAACAGAGGAUUGAGCAUCA
B4: ENSG00000198589:be:win_4301|CDS|ENSG00000198589|bound_else_gene|NA|bound_elsewhere_windowed (ssRNA)
RNA: GGGAGUUCUACAGUCCGACGAUCUGUCAUCUGGAGGAAUUUUGCGGCAGUGUCUCCGACUAGUUUGUGCAGUCGCAGUAAGGAAUUGCUUGGAGUGUCAACAGCAUUCACAACUGAAAACUAGGGGAGAUAAAGCCUUGAAACCAACAGAGGAUUGAGCAUCA
B5: chr2:55866929:55867030:-|3pUTR|ENSG00000115380|msi1|total|mutant (ssRNA)
RNA: GGGAGUUCUACAGUCCGACGAUCAUUUAAGUCAGCCAAAGAAUAUUGUUACCUUAAAGCACUAUUUUAUUUACCGAUAUAUCCCGUGCAUCUACAUCUCUAUACUGUACACUCACCCAUAAUUCAAACAAUUACACCAUGGUACAACAGAGGAUUGAGCAUCA
B6: chr20:17613772:17613873:-|3pUTR|ENSG00000125844|unk|total|mutant (ssRNA)
RNA: GGGAGUUCUACAGUCCGACGAUCAGCCCCGUGGGUGUGUGGGAGGCCGGGCGCUCUGGGGUCUGUCUGUCAGUGCAAUCGUUCCGUGUUUUUUCAGUGGGGCGGGGCGGGAAGCGGGUGGGACCGGGCAGCCAGUUCUCAAAGCAACAGAGGAUUGAGCAUCA
B7: chr8:129748195:129748500:-|three_prime_utr|ENSG00000147697|control|control|control (ssRNA)
RNA: GGGAGUUCUACAGUCCGACGAUCUCCAGAGAUGCUGGCCCUCGCCCAGUCUAUGCUGUGAGUGUCCUUAUGGGUGCAAGAGAUAGGGCUGUGCCUCUCUGCGUUUCCAGGUGGAGUAGAGACAGUAAUGGGUAGAGACUUUAGCAACAGAGGAUUGAGCAUCA
B8: chr1:156668797:156668898:-|3pUTR|ENSG00000132688|msi1|FALSE|bound_elsewhere (ssRNA)
RNA: GGGAGUUCUACAGUCCGACGAUCUGACGGCACUCCCAUGUGCUGACUCCCCCCAUCCCUGCCACGCUGUGGCCCUGCCUGGCUAGUCCCUGCCUGAAUAAAGUAAUGCCUCCGCUUCAAAGUCUGGACUCUUCUUUCCCCCACCAACAGAGGAUUGAGCAUCA
B9: chr14:88572724:88572825:+|CDS|ENSG00000100722|unk|FALSE|unique (ssRNA)
RNA: GGGAGUUCUACAGUCCGACGAUCGUGACACUUACAUAUGGUUCUUCUCGCCCUUCUAUUGAAAUUUAUCGACCACCUGCAAGUAGAAAUGCAGAUAGUGGUGUUCAUUUAAACAGGUUGCAAUUUCAACAGCAGCAGAAUAGUCAACAGAGGAUUGAGCAUCA
B10: ENSG00000124766:be:win_3551|3pUTR|ENSG00000124766|bound_else_gene|NA|bound_elsewhere_windowed (ssRNA)
RNA: GGGAGUUCUACAGUCCGACGAUCCGUUUAAACCACUGGAUCUAUCUAAAUGCCGAUUUGAGUUCGCGACACUAUGUACUGCGUUUUUCAUUCUUGUAUUUGACUAUUUAAUCCUUUCUACUUGUCGCUAAAUAUAAUUGUUUUCAACAGAGGAUUGAGCAUCA
B11: chr12:30637093:30637194:-|CDS|ENSG00000133704|unk|FALSE|bound_elsewhere (ssRNA)
RNA: GGGAGUUCUACAGUCCGACGAUCUGUCUACAUUUUUUUUUUCUUCAAAAUUUGCAGGCAUCAUGACCGGAAGAUGUGUAUAAUAGGACUGAGUAUCCUUUUGGAAUUGCAAAAUCGACCUCCUGCAGUAGAUGCUGUGGUGGGCAACAGAGGAUUGAGCAUCA
B12: chr10:92030311:92030412:+|3pUTR|ENSG00000095564|unk|FALSE|unique (ssRNA)
RNA: GGGAGUUCUACAGUCCGACGAUCAUAUAAGAUUGAAACUGUAAAAUAUAUGCAACUGUGUGUUAUUUGUAGGAAAUGGUCACUAGAAAGAGCAAAAGAUUAUUCAGGUAUACAGGUUUUUUUUCAUUGUUUAGGAUUUUAACUCAACAGAGGAUUGAGCAUCA
B13: chr1:40238196:40238297:+|CDS|ENSG00000117000|msi1|total|mutant (ssRNA)
RNA: GGGAGUUCUACAGUCCGACGAUCCGGUAUUCCCCAUUUCAGUGUCAUAUUUGCCAAAGGUCAUUUACAAGAAAAACACACCUCCGGAUUCAUUAUAAAAAUAAACAUCAAAUUGGCAGUGACAGAGCAACUCACAAACUAUUACAACAGAGGAUUGAGCAUCA
B14: chr5:138511037:138511180:-|CDS|ENSG00000120705|unk|FALSE|unique (ssRNA)
RNA: GGGAGUUCUACAGUCCGACGAUCCACGGGCAAGUACUGUUUUGGCGUUGAAGAUACACUAAAGGCUUUGGAAAUGGGAGCUGUAGAAAUUCUAAUAGUCUAUGAAAAUCUGGAUAUAAUGAGAUAUGUUCUUCAUUGCCAAGGCAACAGAGGAUUGAGCAUCA
B15: chr10:110602053:110602155:+|CDS|ENSG00000108055|unk|FALSE|unique (ssRNA)
RNA: GGGAGUUCUACAGUCCGACGAUCCAGUUUGUAAAUUUCUCCGAGCAGAAAGAAAAGUUAAUAAAGCGUCAAGAAGAGUUAGAUAGGGGUUACAAAUCAAUCAUGGAACUGAUGAAUGUACUUGAACUUCGGAAAUAUGAAGCUCAACAGAGGAUUGAGCAUCA
B16: chr12:132722103:132722204:+|3pUTR|ENSG00000247077|msi1|FALSE|unique (ssRNA)
RNA: GGGAGUUCUACAGUCCGACGAUCGCUUCGCCUUUGACCUUCAUGCUGGUCUCGGCUGAGGUGACACGCUAGUGACAGCCCAAUAGGGGGUUACCCUUAUUGAGUAAAAUACUUCAGAUUGACAGCUCAAUCUUAGUUUGCCUCCAACAGAGGAUUGAGCAUCA
B17: chr17:57972098:57972209:-|3pUTR|ENSG00000136451|unk|total|mutant (ssRNA)
RNA: GGGAGUUCUACAGUCCGACGAUCCCCGAAUGUGGUUGUCAGAACCCUGAAAGUAUCCGUUCUAAAAAAAAAAAGAUAUAUACCCGAAGUAAUUGUUUUAUCAAUUCAUUGUAUAAUAAACAGGAGUGAGACUUCAUUGUAUGACAACAGAGGAUUGAGCAUCA
B18: ENSG00000070961:be:win_851|CDS|ENSG00000070961|bound_else_gene|NA|bound_elsewhere_windowed (ssRNA)
RNA: GGGAGUUCUACAGUCCGACGAUCCUGGAAUUAUCUUUACCUUACUUGGAGCUGGAGGUGAAGAGGAAGAGAAGAAAGAUGAGAAGAAAAAGGAAAAGAAAAAUAAGAAACAAGAUGGAGCUAUUGAGAAUCGCAACAAAGCAACAACAGAGGAUUGAGCAUCA
B19: chr1:23094017:23094118:-|CDS|ENSG00000169641|unk|total|mutant (ssRNA)
RNA: GGGAGUUCUACAGUCCGACGAUCCUCCAGAAAGCAGAGGAUGAACUCCUGGAUCUCCAGGACAAGGUGAUUCAGGCAGAAGGCCGCAACUCCAGCAUGUUGGCGGAGAUUGAAGUGCUGCGCCAGCGGGUGCUGAGAAUUGAACAACAGAGGAUUGAGCAUCA
B20: ENSG00000143742:stop:overlap|stop_codon|ENSG00000143742|stop_codon|NA|stop_codon (ssRNA)
RNA: GGGAGUUCUACAGUCCGACGAUCAAUAUAGGCAUUCUGAUGGGAACUUGUGUGUUAAAGUAACAGAUGAUUUAGUUGAUCAUUAGUUCCUGUUGUUUAAAACUCAUGUGAACCUUUAAGAUGGGCUGAAGAAAAGUGGAUCUGCAACAGAGGAUUGAGCAUCA
B21: ENSG00000147130:stop:overlap|stop_codon|ENSG00000147130|stop_codon|NA|stop_codon (ssRNA)
RNA: GGGAGUUCUACAGUCCGACGAUCAAAAGCGGUUCUGCAACACAACCUGCUUGGGGGCGUACAAGAAGGUGGGGCCGAGGGAGUAGUGCAUUAGAGGGCUGUGGAAGGGGGUGUGGUUCUUGGGUUAUAAAUAAAGGUGGCUGACAACAGAGGAUUGAGCAUCA
B22: chr1:151800263:151800922:-|three_prime_utr|ENSG00000213171|control|control|control (ssRNA)
RNA: GGGAGUUCUACAGUCCGACGAUCCCAAGUCCGCUUCAGAUACCAAAGGGGAAGACAGAACCAAGGCUGCUUGAACCAGAACCUAGUCCCGAGCAGCACCGCUCUCCUGCACCUCCCGCCUGCGUUGUGCCUCCUGCCGGAGAGCAACAGAGGAUUGAGCAUCA

molecular target: MSI1 full-length (mouse, UniProt Q61474 1-362); assay: nsRBNS (natural sequence RNA bind-n-seq); RBNS binding buffer (assumed for nsRBNS): 25 mM Tris pH 7.5, 150 mM KCl, 3 mM MgCl2, 0.01% Triton X-100, 500 ug/ml BSA, 20 U/ml SUPERase-In, 4 C; UNK is unkempt and MSI1 is Musashi-1; names of the RNAs are library labels; protein concentration not given here; high values mean tight binding
UniProt Q61474, sequence (Q61474 whole entry): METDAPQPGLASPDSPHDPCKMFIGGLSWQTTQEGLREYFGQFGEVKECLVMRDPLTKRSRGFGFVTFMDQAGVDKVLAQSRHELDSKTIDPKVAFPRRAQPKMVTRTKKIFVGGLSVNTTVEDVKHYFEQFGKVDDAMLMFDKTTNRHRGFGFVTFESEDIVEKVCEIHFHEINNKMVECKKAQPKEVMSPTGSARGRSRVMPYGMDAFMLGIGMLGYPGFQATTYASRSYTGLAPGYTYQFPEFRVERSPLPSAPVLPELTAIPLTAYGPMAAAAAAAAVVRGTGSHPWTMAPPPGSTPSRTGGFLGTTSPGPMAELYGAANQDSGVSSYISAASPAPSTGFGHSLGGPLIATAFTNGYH

Row | Binder | binding signal [enrichment R]
1 | B1 | 1.78
2 | B2 | 0.415
3 | B3 | 0.482
4 | B4 | 0.309
5 | B5 | 1.52
6 | B6 | 0.811
7 | B7 | 0.724
8 | B8 | 1.01
9 | B9 | 1.17
10 | B10 | 1.07
11 | B11 | 0.324
12 | B12 | 6.54
13 | B13 | 1.15
14 | B14 | 1.09
15 | B15 | 7.98
16 | B16 | 0.316
17 | B17 | 0.711
18 | B18 | 0.724
19 | B19 | 0.282
20 | B20 | 0.53
21 | B21 | 0.498
22 | B22 | 0.483
